Test results taken from the supplement of paper PMC7826260.
Some of the results follow. Each Rep nickase domain was tested in vitro on the same pool of single strands at 3 µM enzyme and 37 °C for 1 h; the strands have 90 letters, of which the middle is given. Uncut reads are compared with the no-enzyme pool on a log2 scale; uncut sequences lie near 0, cut ones below; no hit call is given. Counts are relative to all reads, so uncut sequences can rise above 0 when many others are cut.

Experiments:
Assay in all cases: uncleaved DNA left, log2 of reads against the no-enzyme library (log2 ratio); higher = less cleavage (more negative = more Rep cleavage of the k-mer); sequences stand for … in CTCGTCCG…ACCGGAGA
[1] = tested on: T1, Rep nickase domain of Muscovy duck circovirus
T1 sequence (residues 1-111 of Rep, tag left off): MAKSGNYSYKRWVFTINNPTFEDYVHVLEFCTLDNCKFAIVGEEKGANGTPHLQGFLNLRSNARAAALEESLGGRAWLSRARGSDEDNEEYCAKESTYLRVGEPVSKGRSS
Protocol: (§1)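 A pool of 90-nt single-stranded DNAs with seven random bases just before the constant AC of the nick site (name = the seven bases) was cut by 3 µM recombinant His6-SUMO-tagged Rep nickase domain (300 nM DNA, 50 mM HEPES pH 8.0, 50 mM NaCl, 1 mM MnCl2, 1 h, 37 °C, three replicates). Uncut DNA was amplified and sequenced.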

[2] = tested on: T2, Rep nickase domain of banana bunchy top virus
T2 sequence (residues 1-94 of Rep, tag left off): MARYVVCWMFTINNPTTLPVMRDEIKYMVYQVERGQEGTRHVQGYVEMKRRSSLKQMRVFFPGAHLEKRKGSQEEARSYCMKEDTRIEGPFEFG
Protocol: as §1

[3] = tested on: T3, Rep nickase domain of cabbage leaf curl virus
T3 sequence (residues 1-116 of Rep, tag left off): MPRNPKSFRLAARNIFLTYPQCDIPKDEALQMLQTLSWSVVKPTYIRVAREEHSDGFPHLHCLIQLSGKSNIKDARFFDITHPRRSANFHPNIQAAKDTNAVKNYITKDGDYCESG
Protocol: as §1

[4] = tested on: T4, Rep nickase domain of chickpea chlorotic dwarf virus
T4 sequence (residues 1-124 of Rep, tag left off): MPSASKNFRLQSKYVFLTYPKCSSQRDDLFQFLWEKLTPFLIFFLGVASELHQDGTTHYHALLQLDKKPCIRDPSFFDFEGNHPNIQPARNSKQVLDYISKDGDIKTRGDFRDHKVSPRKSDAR
Protocol: as §1

[5] = tested on: T5, Rep nickase domain of faba bean necrotic yellows virus
T5 sequence (residues 1-98 of Rep, tag left off): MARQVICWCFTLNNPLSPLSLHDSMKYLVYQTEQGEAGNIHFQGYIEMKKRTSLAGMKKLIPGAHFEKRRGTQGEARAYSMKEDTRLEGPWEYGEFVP
Protocol: as §1

[6] = tested on: T6, Rep nickase domain of maize striate mosaic virus
T6 sequence (residues 1-117 of Rep, tag left off): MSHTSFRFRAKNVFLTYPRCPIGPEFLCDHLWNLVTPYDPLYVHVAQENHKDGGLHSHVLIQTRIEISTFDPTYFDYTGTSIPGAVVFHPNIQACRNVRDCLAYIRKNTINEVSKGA
Protocol: as §1

[7] = tested on: T7, Rep nickase domain of porcine circovirus 2
T7 sequence (residues 2-116 of Rep, tag left off): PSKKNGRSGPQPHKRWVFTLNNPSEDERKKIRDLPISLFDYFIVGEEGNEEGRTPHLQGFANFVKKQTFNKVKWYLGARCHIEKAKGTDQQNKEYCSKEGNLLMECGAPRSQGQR
Protocol: as §1

[8] = tested on: T8, Rep nickase domain of tomato golden mosaic virus
T8 sequence (residues 1-124 of Rep, tag left off): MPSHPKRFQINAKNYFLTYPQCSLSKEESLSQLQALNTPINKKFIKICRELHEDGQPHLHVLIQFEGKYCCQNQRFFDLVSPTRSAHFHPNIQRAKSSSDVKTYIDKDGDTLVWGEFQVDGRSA
Protocol: as §1

[9] = tested on: T9, Rep nickase domain of tomato yellow leaf curl virus
T9 sequence (residues 1-136 of Rep, tag left off): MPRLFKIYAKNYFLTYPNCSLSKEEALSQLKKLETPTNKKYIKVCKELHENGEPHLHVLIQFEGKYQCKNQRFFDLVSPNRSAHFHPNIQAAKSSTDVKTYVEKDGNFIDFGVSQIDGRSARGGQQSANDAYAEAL
Protocol: as §1

[10] = tested on: T10, Rep nickase domain of wheat dwarf virus
T10 sequence (residues 1-137 of Rep, tag left off): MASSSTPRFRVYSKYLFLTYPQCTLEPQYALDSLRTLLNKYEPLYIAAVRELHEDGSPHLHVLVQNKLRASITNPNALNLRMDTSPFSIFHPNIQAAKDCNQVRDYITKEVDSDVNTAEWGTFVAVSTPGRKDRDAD
Protocol: as §1

Sequence	uncleaved DNA left (log2) [1]	uncleaved DNA left (log2) [2]	uncleaved DNA left (log2) [3]	uncleaved DNA left (log2) [4]	uncleaved DNA left (log2) [5]	uncleaved DNA left (log2) [6]	uncleaved DNA left (log2) [7]	uncleaved DNA left (log2) [8]	uncleaved DNA left (log2) [9]	uncleaved DNA left (log2) [10]
ACCTCAG	0.122	-0.0115	-0.524	-0.629	-0.0223	-1.17	0.0522	-0.011	-0.0188	-0.0589
CATGCCA	-0.145	-0.103	-0.46	-1.75	-0.0893	-1.25	-0.145	-0.0471	-0.2	-0.209
CTCAGGG	-0.0815	-0.0339	-0.133	0.208	-0.195	-0.428	0.11	-0.0581	-0.00881	0.0125
ATGCGTC	0.0121	-0.193	-0.853	-0.807	-0.0876	-1.12	0.037	-0.156	0.0148	-0.228
CCAGATT	0.0401	-0.177	-0.346	-2	-0.137	-0.312	-0.624	-0.234	-0.0191	-0.235
CAACATT	-0.0399	0.0891	-1.92	-2.53	0.0183	0.0197	-0.512	-0.332	-0.0852	-0.193
TGCACCT	-0.105	-0.0388	-0.0956	-1.13	-0.0868	-0.151	-0.285	-0.179	-0.0366	-0.178
TTTCAAT	-0.0835	0.0213	0.218	0.189	0.0597	0.276	-0.201	0.118	0.162	0.172
AGACCTA	0.0925	0.057	0.457	0.824	0.0335	1.63	-0.0234	0.00222	0.097	0.0214
TGGAAGT	0.0975	0.0688	0.429	0.855	-0.0579	0.629	0.0987	-0.039	-0.0751	0.196
AGAAGAA	0.148	0.0612	0.162	0.316	0.0763	-0.393	0.0849	0.144	0.00265	0.0482
TTCAACG	0.0726	-0.0496	-0.846	-1.03	-0.0153	-1.35	0.135	-0.142	-0.00987	-0.0962
CGGATGG	-0.0661	-0.118	-0.0789	0.233	-0.047	-0.0919	0.0289	-0.192	-0.13	-0.0422
CTGCGTT	-0.0294	-0.214	-0.935	-0.752	-0.0598	-1.05	0.0517	-0.232	-0.0485	-0.218
TAGCTAC	0.0493	-0.0179	-0.0176	-1.46	0.00815	-0.0393	-0.203	-0.0319	0.0576	-0.125
TTGTGGG	0.0541	-0.0611	-0.305	-0.472	0.0405	-0.761	0.00913	0.0544	0.0373	-0.144
CTTAGGT	0.062	0.0501	0.445	1.08	0.128	1.21	0.156	-0.0381	0.16	-0.00382
CGGGACC	0.0321	0.0705	0.783	1.91	0.0219	2.22	0.243	0.101	0.0435	0.144
TATACCG	-0.0633	-0.026	-0.921	-0.955	0.00494	-1.01	-0.0466	-0.0507	-0.063	-0.13
GGGAGCA	0.125	0.182	1.04	2.15	0.115	2.34	0.263	0.243	0.185	0.331
AGGCCAA	0.0496	0.0108	0.574	0.894	-0.00862	1.06	0.00127	0.101	0.11	0.124
ATGACTG	0.0127	-0.0639	0.0621	0.723	-0.0172	1.68	0.14	0.0776	-0.0694	0.0295
GCTGTCC	-0.0482	0.032	0.132	0.541	-0.0626	0.762	0.00608	-0.0599	-0.136	-0.0752
ATCACGC	0.0218	0.0169	-0.195	-0.503	0.127	-0.919	0.186	-0.0381	-0.105	-0.118
GCTATCC	0.0103	0.0906	0.173	0.524	0.0416	0.306	0.17	0.0232	0.0191	0.0807
GAAAAAC	0.115	0.119	0.35	0.457	0.00206	0.37	0.128	0.0929	0.105	0.137
CGCGATC	0.00607	-0.0241	0.0237	0.0754	-0.0596	-0.474	0.157	-0.0628	0.0206	-0.0847
GACCTAT	-0.107	-0.0779	0.0838	0.0716	-0.0568	0.83	-0.238	-0.0651	-0.106	0.101
GCTCCAT	0.108	0.107	0.344	0.584	0.138	0.826	0.17	0.145	0.255	0.243
AGGATTA	-0.0216	0.0617	-0.00818	0.107	-0.0286	0.738	-0.217	-0.0192	-0.127	0.0384
